Laboratory results reported in patent publication EP4702986A1, “POLYPEPTIDE AND USE THEREOF” (Biocells (Beijing) Biotech Co., Ltd., priority 2023, dated 2024).
At least one structure is not confirmed: it was looked up by name or label, or the drawing left a doubt. Numbered stars: 1 amine (or outer) side, 2 acyl side, 3 side chain; on linkers, the order of the positions; unused ones are H or OH. Bridge positions count the residues as written; N and C are the ends. Square brackets hold non-standard residues; d marks the D form. Side chains are listed from the residue outwards. Peptide text beside a SMILES is read from it. * marks the point of attachment. C18 diacid = O=C(O)CCCCCCCCCCCCCCCCC(=O)*; γGlu = O=C(O)[C@H](CCC(=O)[*:2])N[*:1]; Fumaryl(OMe) = COC(=O)/C=C/C(=O)*; X2 = C(COCCOCCOCCOCCN[*:2])N[*:1]; Fumaroyl = O=C(O)/C=C/C(=O)*; Suc = O=C(CCC(=O)[*:2])[*:1]; Orn = NCCC[C@H](N)C(=O)O; Dab = NCC[C@H](N)C(=O)O; Abu = CC[C@H](N)C(=O)O; AEEA = NCCOCCOCC(=O)O

Molecular target: T1, human ETB receptor (Homo sapiens, UniProt P24530)
T1 construct: expressed in transfected cells; host or cells: 293T-17 cells, transient transfection
T1 sequence (P24530 27-442): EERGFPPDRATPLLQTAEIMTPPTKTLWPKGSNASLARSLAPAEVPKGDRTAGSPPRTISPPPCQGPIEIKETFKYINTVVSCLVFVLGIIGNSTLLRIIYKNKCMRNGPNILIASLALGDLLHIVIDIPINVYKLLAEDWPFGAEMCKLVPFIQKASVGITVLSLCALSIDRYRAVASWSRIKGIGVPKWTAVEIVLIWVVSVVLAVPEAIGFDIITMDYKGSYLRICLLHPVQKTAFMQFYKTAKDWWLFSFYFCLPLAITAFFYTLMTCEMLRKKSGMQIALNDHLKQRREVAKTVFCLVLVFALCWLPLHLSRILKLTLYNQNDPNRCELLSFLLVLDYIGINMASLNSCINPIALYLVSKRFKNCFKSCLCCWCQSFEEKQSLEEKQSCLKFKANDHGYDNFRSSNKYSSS
Assay: Determination of EC50 of polypeptides against human ETB receptor (IP-One Gq kit)
Type: cell-based
Details: 293T-17 cells transfected with PCDNA3.1-hETB; read-out: hETBR agonist activity EC50/nM
Procedure: 293T-17 cells were seeded at a density of 650,000 cells per well in a 6-well plate and cultured overnight in an incubator at 37°C and 5% CO2. Afterward, the cells were transfected with an expression vector, PCDNA3.1-hETB which contained a human ETB receptor gene, at a plasmid concentration of 2.5 µg per well. The cells were further cultured for 48 hours, and green fluorescence expression was observed under a fluorescence microscope. The cells were then digested with trypsin and counted. The activity of compounds on the human ETB receptor was determined with the IP-One Gq kit from Cisbio Bioassays. The cells were suspended in Stim Buffer provided in the kit and the cell suspension was added to a 96-well detection plate at 7 µL cell suspension (containing 30,000 cells) per well. The polypeptides to be tested (prepared according to the Preparation Example of the invention) were diluted in Stim B to obtain a gradient of 11 concentration points. For each concentration point, the polypeptides to be tested were dissolved in Stim B to be at a concentration of 2×, and added at 7 µL to the test cells, while 7 µL of PBS solution was added to the cells in the negative control wells. The plate was sealed and incubated at 37°C for 1 hour in a cell culture incubator. Detection wells, positive control wells containing human endothelin ET1 (ET1: […] (C1-C15,C3-C11)), and PBS control wells were each added with 3 µL of IP1 d2 working solution and 3 µL of IP1 Tb cryptotate Antibody working solution. The plate was then sealed and incubated in the dark at room temperature (25°C±5°C) for 1 hour. The plate seal was removed, and the […] at 665 nm and 620 nm was measured with an ID5 microplate reader. The ratio of the acceptor emission signal to the donor emission signal, i.e., (signal at 665 nm/signal at 620 nm)×10^4, was calculated for each well. With F representing the average value of values of signal at 665 nm/signal at 620 nm for the test samples at various concentrations, a scatterplot was plotted, where the abscissa represented the F value, and the ordinate represented the logarithmic value of the peptide concentration. A curve was fitted with an appropriate method to calculate EC50 values of the polypeptides against the human ETB receptor. Another method was provided for fitting a curve where activation rate of the test polypeptides at each concentration relative to the positive control sample human endothelin ET1 was calculated first with the method in Example 1, and a scatterplot was plotted, where the abscissa represented the activation rate, and the ordinate represented the logarithmic value of the polypeptide concentration. A curve was fitted with an appropriate method to calculate the EC50 values of the polypeptides against the human ETB receptor.

Structure (SMILES): CC[C@H](C)[C@H](NC(=O)[C@H](CC(=O)O)NC(=O)[C@H](CCCCN)NC(=O)[C@H](Cc1c[nH]cn1)NC(=O)[C@H](C)NC(=O)[C@H](Cc1ccccc1)NC(=O)[C@H](Cc1ccc(O)cc1)NC(=O)[C@@H](NC(=O)[C@H](CCC(=O)O)NC(=O)[C@H](CCC(=O)O)NC(=O)[C@H](CCC(=O)O)NC(=O)[C@H](CC(=O)O)NC(=O)CCC(=O)O)C(C)C)C(=O)N[C@H](C(=O)N[C@@H](Cc1c[nH]c2ccccc12)C(=O)O)[C@@H](C)CC [BX-45] (Suc-DEEEVYFAHKDIIW-OH)
- EC50: 29 nM

Structure (SMILES): CC[C@H](C)[C@H](NC(=O)[C@H](CC(=O)O)NC(=O)[C@H](CC(C)C)NC(=O)[C@H](Cc1c[nH]cn1)NC(=O)[C@H](C)NC(=O)[C@H](Cc1ccccc1)NC(=O)[C@H](Cc1ccc(O)cc1)NC(=O)[C@@H]1CCCCNC(=O)CC[C@H](NC(=O)[C@H](CC(=O)O)NC(=O)CCC(=O)O)C(=O)N[C@@H](CCC(=O)O)C(=O)N[C@@H](C)C(=O)N1)C(=O)N[C@H](C(=O)N[C@@H](Cc1c[nH]c2ccccc12)C(=O)O)[C@@H](C)CC [BX-48] (Suc-DEEAKYFAHLDIIW-OH; lactam 2-5)
- EC50: 1.77 nM

Structure (SMILES): CC[C@H](C)[C@H](NC(=O)[C@H](CC(=O)O)NC(=O)[C@H](CC(C)C)NC(=O)[C@H](Cc1c[nH]cn1)NC(=O)[C@H](C)NC(=O)[C@H](Cc1ccccc1)NC(=O)[C@H](Cc1ccc(O)cc1)NC(=O)[C@@H]1CCNC(=O)CC[C@H](NC(=O)[C@H](CC(=O)O)NC(=O)CCC(=O)O)C(=O)N[C@@H](CCC(=O)O)C(=O)N[C@@H](C)C(=O)N1)C(=O)N[C@H](C(=O)N[C@@H](Cc1c[nH]c2ccccc12)C(=O)O)[C@@H](C)CC [BX-49] (Suc-DEEA[Dab]YFAHLDIIW-OH; lactam 2-5)
- EC50: 4.44 nM

Structure (SMILES): CC[C@H](C)[C@H](NC(=O)[C@H](CC(=O)O)NC(=O)[C@H](CCCN)NC(=O)[C@H](Cc1c[nH]cn1)NC(=O)[C@H](C)NC(=O)[C@H](Cc1ccccc1)NC(=O)[C@H](Cc1ccc(O)cc1)NC(=O)[C@@H](NC(=O)[C@H](CCC(=O)O)NC(=O)[C@H](CCC(=O)O)NC(=O)[C@H](CCC(=O)O)NC(=O)[C@H](CC(=O)O)NC(=O)CCC(=O)O)C(C)C)C(=O)N[C@H](C(=O)N[C@@H](Cc1c[nH]c2ccccc12)C(=O)O)[C@@H](C)CC [BX-53, Suc-DEEEVYFAHOrnDIIW] (Suc-DEEEVYFAH[Orn]DIIW-OH)
- EC50: 10.7 nM

Structure (SMILES): CC[C@H](C)[C@H](NC(=O)[C@H](CC(=O)O)NC(=O)[C@H](CCCCNC(=O)COCCOCCNC(=O)COCCOCCNC(=O)CC[C@H](NC(=O)CCCCCCCCCCCCCCCCC(=O)O)C(=O)O)NC(=O)[C@H](Cc1c[nH]cn1)NC(=O)[C@H](C)NC(=O)[C@H](Cc1ccccc1)NC(=O)[C@H](Cc1ccc(O)cc1)NC(=O)[C@@H](NC(=O)[C@H](CCC(=O)O)NC(=O)[C@H](CCC(=O)O)NC(=O)[C@H](CCC(=O)O)NC(=O)[C@H](CC(=O)O)NC(=O)CCC(=O)O)C(C)C)C(=O)N[C@H](C(=O)N[C@@H](Cc1c[nH]c2ccccc12)C(=O)O)[C@@H](C)CC [BX-54] (Suc-DEEEVYFAHK([AEEA-AEEA-γGlu-C18 diacid])DIIW-OH)
- EC50: 34 nM

Structure (SMILES): CC[C@H](C)[C@H](NC(=O)[C@H](CC(=O)O)NC(=O)[C@H](CCCCN)NC(=O)[C@H](Cc1c[nH]cn1)NC(=O)[C@H](C)NC(=O)[C@H](Cc1ccccc1)NC(=O)[C@H](Cc1ccc(O)cc1)NC(=O)[C@@H](NC(=O)[C@H](CCC(=O)O)NC(=O)[C@H](CCC(=O)O)NC(=O)[C@H](CCC(=O)O)NC(=O)[C@H](CC(=O)O)NC(=O)/C=C/C(=O)OC)C(C)C)C(=O)N[C@H](C(=O)N[C@@H](Cc1c[nH]c2ccccc12)C(=O)O)[C@@H](C)CC [BX-58] ({Fumaryl(OMe)}-DEEEVYFAHKDIIW-OH)
- EC50: 4.48 nM

Structure (SMILES): CC[C@H](C)[C@H](NC(=O)[C@H](CC(=O)O)NC(=O)[C@H](CCCCNC(=O)COCCOCCNC(=O)COCCOCCNC(=O)CC[C@H](NC(=O)CCCCCCCCCCCCCCCCC(=O)O)C(=O)O)NC(=O)[C@H](Cc1c[nH]cn1)NC(=O)[C@H](C)NC(=O)[C@H](Cc1ccccc1)NC(=O)[C@H](Cc1ccc(O)cc1)NC(=O)[C@@H](NC(=O)[C@H](C)NC(=O)[C@H](CCC(=O)O)NC(=O)[C@@H](N)CCC(=O)O)C(C)C)C(=O)N[C@H](C(=O)N[C@@H](Cc1c[nH]c2ccccc12)C(=O)O)[C@@H](C)CC [BX-221] (H-EEAVYFAHK([AEEA-AEEA-γGlu-C18 diacid])DIIW-OH)
- EC50: 112 nM

Structure (SMILES): CC[C@H](NC(=O)[C@H](CC(=O)O)NC(=O)[C@H](CC(C)C)NC(=O)[C@H](Cc1c[nH]cn1)NC(=O)[C@H](C)NC(=O)[C@H](Cc1ccccc1)NC(=O)[C@H](Cc1ccc(O)cc1)NC(=O)[C@@H](NC(=O)[C@H](C)NC(=O)[C@H](CCC(=O)O)NC(=O)[C@H](CCC(=O)O)NC(=O)[C@H](CC(=O)O)NC(=O)/C=C/C(=O)O)C(C)C)C(=O)N[C@H](C(=O)N[C@@H](Cc1c[nH]c2ccccc12)C(=O)O)[C@@H](C)CC [FBX-8] (Fumaroyl-DEEAVYFAHLD[Abu]IW-OH)
- EC50: 1.77 nM

Structure (SMILES): CC[C@H](C)[C@H](NC(=O)[C@H](CC(=O)O)NC(=O)[C@H](CCCCN)NC(=O)[C@H](Cc1c[nH]cn1)NC(=O)[C@@H]1CCC(=O)NCCOCCOCCOCCOCCNC(=O)CC[C@H](NC(=O)[C@H](CCC(=O)O)NC(=O)[C@H](CCC(=O)O)NC(=O)[C@H](CC(=O)O)NC(=O)/C=C/C(=O)O)C(=O)N[C@@H](C(C)C)C(=O)N[C@@H](Cc2ccc(O)cc2)C(=O)N[C@@H](Cc2ccccc2)C(=O)N1)C(=O)N[C@H](C(=O)N[C@@H](Cc1c[nH]c2ccccc12)C(=O)O)[C@@H](C)CC [QP-1] (Fumaroyl-DEEEVYFEHKDIIW-OH; linker 4-8 via X2)
- EC50: 9.65 nM
